# Measured values as given in the supplement of paper PMC8728848.
# The list shows a part of the results.
# B1: OrysaEULS2 (Oryza sativa) (protein)
# chain: MVYCRANPNYAMTARNGAVVLAPANPKDEYQHWIKDMRWSTSIKDEEGYPAFALVNKATGQAIKHSLGQSHPVRLVPYNPEVMDESVLWTESRDVGNGFRCIRMVNNIYLNFDAFHGDKYHGGVRDGTDIVLWKWCEGDNQRWKIQPYYILEQKLISEEDLNSAVDHHHHHH
# Key:
# Assay in all cases: glycan array binding signal (z-score within array); higher = stronger binding
# Conditions in all cases: glycan notation: IUPAC condensed, linker removed
# [1] = target: Gal(a1-3)Gal(b1-4)[Fuc(a1-3)]GlcNAc
# Outline: (§1)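 Columns mapping to the same glycan were averaged after glycan names were converted to IUPAC-condensed notation. The data come from 3228 arrays in the Consortium for Functional Glycomics database, limited to those with an available protein sequence. Binding is reported as a within-array Z-score averaged across arrays of one protein sequence and across linkers.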
# [2] = target: Gal(a1-3)Gal(b1-4)[Fuc(a1-3)]GlcNAc(b1-2)Man(a1-3)[Gal(a1-3)Gal(b1-4)[Fuc(a1-3)]GlcNAc(b1-2)Man(a1-6)]Man(b1-4)GlcNAc(b1-4)GlcNAc
# Outline: as §1
# Gal(a1-3)GalNAc = target: Gal(a1-3)GalNAc
# Outline: as §1
# [3] = target: Gal(a1-3)[Gal(a1-4)]Gal(b1-4)GlcNAc
# Outline: as §1
# [4] = target: Gal(a1-4)Gal(b1-3)GlcNAc(b1-2)Man(a1-3)[Gal(a1-4)Gal(b1-3)GlcNAc(b1-2)Man(a1-6)]Man(b1-4)GlcNAc(b1-4)GlcNAc
# Outline: as §1
# Gal(a1-4)Gal(b1-4)Glc = target: Gal(a1-4)Gal(b1-4)Glc
# Outline: as §1
# Gal(a1-4)Gal(b1-4)GlcNAc = target: Gal(a1-4)Gal(b1-4)GlcNAc
# Outline: as §1
# [5] = target: Gal(a1-4)Gal(b1-4)GlcNAc(b1-2)Man(a1-3)[Gal(a1-4)Gal(b1-4)GlcNAc(b1-2)Man(a1-6)]Man(b1-4)GlcNAc(b1-4)GlcNAc
# Outline: as §1
# [6] = target: Gal(a1-4)Gal(b1-4)GlcNAc(b1-3)Gal(b1-4)Glc
# Outline: as §1
# Gal(a1-4)GlcNAc = target: Gal(a1-4)GlcNAc
# Outline: as §1
# Gal(a1-6)Glc = target: Gal(a1-6)Glc
# Outline: as §1
# Gal(b1-2)Gal = target: Gal(b1-2)Gal
# Outline: as §1
# Gal(b1-3)Gal = target: Gal(b1-3)Gal
# Outline: as §1
# Gal(b1-3)Gal(b1-4)GlcNAc = target: Gal(b1-3)Gal(b1-4)GlcNAc
# Outline: as §1
# [7] = target: Gal(b1-3)Gal(b1-4)GlcNAc(b1-2)Man(a1-3)[Gal(b1-3)Gal(b1-4)GlcNAc(b1-2)Man(a1-6)]Man(b1-4)GlcNAc(b1-4)GlcNAc
# Outline: as §1
# Gal(b1-3)GalNAc = target: Gal(b1-3)GalNAc
# Outline: as §1
# [8] = target: Gal(b1-3)GalNAc(a1-3)[Fuc(a1-2)]Gal(b1-4)Glc
# Outline: as §1
# [9] = target: Gal(b1-3)GalNAc(a1-3)[Fuc(a1-2)]Gal(b1-4)GlcNAc
# Outline: as §1
# Gal(b1-3)GalNAc(b1-3)Gal = target: Gal(b1-3)GalNAc(b1-3)Gal
# Outline: as §1
# [10] = target: Gal(b1-3)GalNAc(b1-3)Gal(a1-4)Gal(b1-4)Glc
# Outline: as §1
# [11] = target: Gal(b1-3)GalNAc(b1-4)Gal(b1-4)Glc
# Outline: as §1
# [12] = target: Gal(b1-3)GalNAc(b1-4)[Neu5Ac(a2-3)]Gal(b1-4)Glc
# Outline: as §1
# Gal(b1-3)GlcNAc = target: Gal(b1-3)GlcNAc
# Outline: as §1
# [13] = target: Gal(b1-3)GlcNAc(a1-3)Gal(b1-4)GlcNAc
# Outline: as §1
# [14] = target: Gal(b1-3)GlcNAc(a1-6)Gal(b1-4)GlcNAc
# Outline: as §1
# Gal(b1-3)GlcNAc(b1-2)Man = target: Gal(b1-3)GlcNAc(b1-2)Man
# Outline: as §1
# [15] = target: Gal(b1-3)GlcNAc(b1-2)Man(a1-3)[Gal(b1-3)GlcNAc(b1-2)Man(a1-6)]Man(b1-4)GlcNAc(b1-4)GlcNAc
# Outline: as §1
# [16] = target: Gal(b1-3)GlcNAc(b1-2)Man(a1-3)[Gal(b1-3)GlcNAc(b1-2)Man(a1-6)]Man(b1-4)GlcNAc(b1-4)[Fuc(a1-6)]GlcNAc
# Outline: as §1
# [17] = target: Gal(b1-3)GlcNAc(b1-2)Man(a1-3)[GlcNAc(b1-4)][Gal(b1-3)GlcNAc(b1-2)Man(a1-6)]Man(b1-4)GlcNAc(b1-4)GlcNAc
# Outline: as §1
# [18] = target: Gal(b1-3)GlcNAc(b1-2)[Gal(b1-3)GlcNAc(b1-6)]Man(a1-6)[Gal(b1-3)GlcNAc(b1-2)Man(a1-3)]Man(b1-4)GlcNAc(b1-4)GlcNAc
# Outline: as §1
# [19] = target: Gal(b1-3)GlcNAc(b1-3)Gal(b1-3)GlcNAc
# Outline: as §1
# [20] = target: Gal(b1-3)GlcNAc(b1-3)Gal(b1-4)Glc
# Outline: as §1
# [21] = target: Gal(b1-3)GlcNAc(b1-3)Gal(b1-4)GlcNAc
# Outline: as §1
# [22] = target: Gal(b1-3)GlcNAc(b1-3)Gal(b1-4)GlcNAc(b1-2)Man(a1-3)[Gal(b1-3)GlcNAc(b1-3)Gal(b1-4)GlcNAc(b1-2)Man(a1-6)]Man(b1-4)GlcNAc(b1-4)GlcNAc
# Outline: as §1
# [23] = target: Gal(b1-3)GlcNAc(b1-3)Gal(b1-4)GlcNAc(b1-2)[Gal(b1-3)GlcNAc(b1-3)Gal(b1-4)GlcNAc(b1-6)]Man(a1-6)[Gal(b1-3)GlcNAc(b1-3)Gal(b1-4)GlcNAc(b1-2)Man(a1-3)]Man(b1-4)GlcNAc(b1-4)[Fuc(a1-6)]GlcNAc
# Outline: as §1
# [24] = target: Gal(b1-3)GlcNAc(b1-3)Gal(b1-4)GlcNAc(b1-3)Gal(b1-4)GlcNAc(b1-2)[Gal(b1-3)GlcNAc(b1-3)Gal(b1-4)GlcNAc(b1-3)Gal(b1-4)GlcNAc(b1-6)]Man(a1-6)[Gal(b1-3)GlcNAc(b1-3)Gal(b1-4)GlcNAc(b1-3)Gal(b1-4)GlcNAc(b1-2)Man(a1-3)]Man(b1-4)GlcNAc(b1-4)[Fuc(a1-6)]GlcNAc
# Outline: as §1
# [25] = target: Gal(b1-3)GlcNAc(b1-3)Gal(b1-4)GlcNAc(b1-6)[Gal(b1-3)GlcNAc(b1-3)]Gal(b1-4)Glc
# Outline: as §1
# [26] = target: Gal(b1-3)GlcNAc(b1-3)Gal(b1-4)[Fuc(a1-3)]GlcNAc
# Outline: as §1
# [27] = target: Gal(b1-3)GlcNAc(b1-3)Gal(b1-4)[Fuc(a1-3)]GlcNAc(b1-6)[Gal(b1-3)GlcNAc(b1-3)]Gal(b1-4)Glc
# Outline: as §1
# [28] = target: Gal(b1-3)GlcNAc(b1-3)GalNAc
# Outline: as §1
# [29] = target: Gal(b1-3)GlcNAc(b1-6)Gal(b1-4)GlcNAc
# Outline: as §1
# [30] = target: Gal(b1-3)GlcNAc(b1-6)GalNAc
# Outline: as §1
# [31] = target: Gal(b1-3)GlcNAc(b1-6)[Gal(b1-3)]GalNAc
# Outline: as §1
# Gal(b1-3)GlcNAc6S = target: Gal(b1-3)GlcNAc6S
# Outline: as §1
# [32] = target: Gal(b1-3)[Fuc(a1-4)]GlcNAc
# Outline: as §1
binder,measurement,setting,value
B1,glycan array binding signal (z-score),[1],-0.216
same,glycan array binding signal (z-score),[2],-0.064
same,glycan array binding signal (z-score),Gal(a1-3)GalNAc,-0.198
same,glycan array binding signal (z-score),[3],-0.09
same,glycan array binding signal (z-score),[4],2.38
same,glycan array binding signal (z-score),Gal(a1-4)Gal(b1-4)Glc,-0.2
same,glycan array binding signal (z-score),Gal(a1-4)Gal(b1-4)GlcNAc,-0.211
same,glycan array binding signal (z-score),[5],0.579
same,glycan array binding signal (z-score),[6],-0.209
same,glycan array binding signal (z-score),Gal(a1-4)GlcNAc,-0.191
same,glycan array binding signal (z-score),Gal(a1-6)Glc,-0.189
same,glycan array binding signal (z-score),Gal(b1-2)Gal,-0.142
same,glycan array binding signal (z-score),Gal(b1-3)Gal,-0.207
same,glycan array binding signal (z-score),Gal(b1-3)Gal(b1-4)GlcNAc,-0.212
same,glycan array binding signal (z-score),[7],1.1
same,glycan array binding signal (z-score),Gal(b1-3)GalNAc,-0.18
same,glycan array binding signal (z-score),[8],-0.179
same,glycan array binding signal (z-score),[9],-0.204
same,glycan array binding signal (z-score),Gal(b1-3)GalNAc(b1-3)Gal,-0.288
same,glycan array binding signal (z-score),[10],-0.193
same,glycan array binding signal (z-score),[11],-0.2
same,glycan array binding signal (z-score),[12],-0.181
same,glycan array binding signal (z-score),Gal(b1-3)GlcNAc,-0.199
same,glycan array binding signal (z-score),[13],-0.191
same,glycan array binding signal (z-score),[14],-0.171
same,glycan array binding signal (z-score),Gal(b1-3)GlcNAc(b1-2)Man,-0.251
same,glycan array binding signal (z-score),[15],1.19
same,glycan array binding signal (z-score),[16],0.304
same,glycan array binding signal (z-score),[17],-0.12
same,glycan array binding signal (z-score),[18],0.672
same,glycan array binding signal (z-score),[19],-0.205
same,glycan array binding signal (z-score),[20],-0.182
same,glycan array binding signal (z-score),[21],-0.222
same,glycan array binding signal (z-score),[22],0.704
same,glycan array binding signal (z-score),[23],0.13
same,glycan array binding signal (z-score),[24],-0.025
same,glycan array binding signal (z-score),[25],-0.219
same,glycan array binding signal (z-score),[26],-0.262
same,glycan array binding signal (z-score),[27],-0.207
same,glycan array binding signal (z-score),[28],-0.179
same,glycan array binding signal (z-score),[29],-0.209
same,glycan array binding signal (z-score),[30],-0.218
same,glycan array binding signal (z-score),[31],-0.228
same,glycan array binding signal (z-score),Gal(b1-3)GlcNAc6S,-0.185
same,glycan array binding signal (z-score),[32],-0.191
